# Source: the supplement of paper PMC8728848
# The other results are listed elsewhere or left out.
# Tests used:
# Assay in all cases: glycan array binding signal (z-score within array); higher = stronger binding
# Details in all cases: glycan notation: IUPAC condensed, linker removed
# [1] = biological target: Gal(b1-4)GlcNAc(b1-2)Man(a1-6)[Man(a1-3)]Man(b1-4)GlcNAc(b1-4)GlcNAc
# Procedure, shortened: (§1)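 Arrays were curated from the Consortium for Functional Glycomics database, 3228 in total, and kept only where the protein sequence was available. Binding is expressed as a within-array Z-score. This score was averaged across arrays of the same protein sequence at different concentrations or buffers and across linkers, and negative values can be read as non-binding.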
# [2] = biological target: Gal(b1-4)GlcNAc(b1-2)[Gal(b1-4)GlcNAc(b1-4)]Man(a1-3)[Gal(b1-4)GlcNAc(b1-2)Man(a1-6)]Man(b1-4)GlcNAc(b1-4)GlcNAc
# Procedure, shortened: as §1
# [3] = biological target: Gal(b1-4)GlcNAc(b1-2)[Gal(b1-4)GlcNAc(b1-4)]Man(a1-3)[Gal(b1-4)GlcNAc(b1-2)[Gal(b1-4)GlcNAc(b1-6)]Man(a1-6)]Man(b1-4)GlcNAc(b1-4)GlcNAc
# Procedure, shortened: as §1
# [4] = biological target: Gal(b1-4)GlcNAc(b1-2)[Gal(b1-4)GlcNAc(b1-4)]Man(a1-3)[GlcNAc(b1-4)][Gal(b1-4)GlcNAc(b1-2)Man(a1-6)]Man(b1-4)GlcNAc(b1-4)GlcNAc
# Procedure, shortened: as §1
# [5] = biological target: Gal(b1-4)GlcNAc(b1-2)[Gal(b1-4)GlcNAc(b1-6)]Man(a1-6)[GlcNAc(b1-4)][Gal(b1-4)GlcNAc(b1-2)Man(a1-3)]Man(b1-4)GlcNAc(b1-4)GlcNAc
# Procedure, shortened: as §1
# [6] = biological target: Gal(b1-4)GlcNAc(b1-3)Gal(b1-3)GlcNAc
# Procedure, shortened: as §1
# [7] = biological target: Gal(b1-4)GlcNAc(b1-3)Gal(b1-4)Glc
# Procedure, shortened: as §1
# [8] = biological target: Gal(b1-4)GlcNAc(b1-3)Gal(b1-4)GlcNAc
# Procedure, shortened: as §1
# [9] = biological target: Gal(b1-4)GlcNAc(b1-3)Gal(b1-4)GlcNAc(b1-3)Gal(b1-4)GlcNAc
# Procedure, shortened: as §1
# [10] = biological target: Gal(b1-4)GlcNAc(b1-3)Gal(b1-4)[Fuc(a1-3)GlcNAc(b1-6)]Gal(b1-4)Glc
# Procedure, shortened: as §1
# [11] = biological target: Gal(b1-4)GlcNAc(b1-3)Gal(b1-4)[Fuc(a1-3)]GlcNAc(b1-3)Gal(b1-4)[Fuc(a1-3)]GlcNAc
# Procedure, shortened: as §1
# [12] = biological target: Gal(b1-4)GlcNAc(b1-3)GalNAc
# Procedure, shortened: as §1
# [13] = biological target: Gal(b1-4)GlcNAc(b1-3)[Gal(b1-4)GlcNAc(b1-6)]Gal(b1-4)GlcNAc
# Procedure, shortened: as §1
# [14] = biological target: Gal(b1-4)GlcNAc(b1-3)[Gal(b1-4)GlcNAc(b1-6)]GalNAc
# Procedure, shortened: as §1
# [15] = biological target: Gal(b1-4)GlcNAc(b1-3)[GlcNAc(b1-6)]Gal(b1-4)GlcNAc
# Procedure, shortened: as §1
# [16] = biological target: Gal(b1-4)GlcNAc(b1-6)Gal(b1-4)GlcNAc
# Procedure, shortened: as §1
# [17] = biological target: Gal(b1-4)GlcNAc(b1-6)Gal(b1-4)GlcNAc(b1-6)GalNAc
# Procedure, shortened: as §1
# [18] = biological target: Gal(b1-4)GlcNAc(b1-6)GalNAc
# Procedure, shortened: as §1
# [19] = biological target: Gal(b1-4)GlcNAc(b1-6)[Gal(b1-3)]GalNAc
# Procedure, shortened: as §1
# [20] = biological target: Gal(b1-6)Gal
# Procedure, shortened: as §1
# [21] = biological target: Gal3S(b1-3)GalNAc
# Procedure, shortened: as §1
# [22] = biological target: Gal3S(b1-3)GlcNAc
# Procedure, shortened: as §1
# [23] = biological target: Gal3S(b1-3)[Fuc(a1-4)]GlcNAc
# Procedure, shortened: as §1
# [24] = biological target: Gal3S(b1-4)Glc
# Procedure, shortened: as §1
# [25] = biological target: Gal3S(b1-4)Glc6S
# Procedure, shortened: as §1
# [26] = biological target: Gal3S(b1-4)GlcNAc
# Procedure, shortened: as §1
# [27] = biological target: Gal3S(b1-4)GlcNAc6S
# Procedure, shortened: as §1
# [28] = biological target: Gal3S(b1-4)[Fuc(a1-3)]Glc
# Procedure, shortened: as §1
# [29] = biological target: Gal3S(b1-4)[Fuc(a1-3)]Glc6S
# Procedure, shortened: as §1
# [30] = biological target: Gal3S4S(b1-4)GlcNAc
# Procedure, shortened: as §1
# [31] = biological target: Gal3S6S(b1-4)GlcNAc
# Procedure, shortened: as §1
# [32] = biological target: Gal3S6S(b1-4)GlcNAc6S
# Procedure, shortened: as §1
# [33] = biological target: Gal4S(b1-4)GlcNAc
# Procedure, shortened: as §1
# [34] = biological target: Gal4S6S(b1-4)GlcNAc
# Procedure, shortened: as §1
# [35] = biological target: Gal6S(b1-3)GlcNAc
# Procedure, shortened: as §1
# [36] = biological target: Gal6S(b1-3)GlcNAc6S
# Procedure, shortened: as §1
# [37] = biological target: Gal6S(b1-4)Glc
# Procedure, shortened: as §1
binder,measurement,setting,value
"PILRa (Homo sapiens), Q9UKJ1 (protein) MGRPLLLPLLPLLLPPAFLQPSGSTGSGPSYLYGVTQPKHLSASMGGSVEIPFSFYYPWELATAPDVRISWRRGHFHRQSFYSTRPPSIHKDYVNRLFLNWTEGQKSGFLRISNLQKQDQSVYFCRVELDTRSSGRQQWQSIEGTKLSITQAVTTTTQRPSSMTTTWRLSSTTTTTGLRVTQGKRRSDSWHISLETAVGVAVAVTVLGIMILGLICLLRWRRRKGQQRTKATTPAREPFQNTEEPYENIRNEGQNTDPKLNPKDDGIVYASLALSSSTSPRAPPSHRPLKSPQNETLYSVLKA",glycan array binding signal (z-score),[1],-0.266
same,glycan array binding signal (z-score),[2],-0.188
same,glycan array binding signal (z-score),[3],-0.123
same,glycan array binding signal (z-score),[4],-0.063
same,glycan array binding signal (z-score),[5],-0.037
same,glycan array binding signal (z-score),[6],-0.309
same,glycan array binding signal (z-score),[7],-0.016
same,glycan array binding signal (z-score),[8],-0.293
same,glycan array binding signal (z-score),[9],-0.382
same,glycan array binding signal (z-score),[10],-0.309
same,glycan array binding signal (z-score),[11],-0.181
same,glycan array binding signal (z-score),[12],-0.038
same,glycan array binding signal (z-score),[13],-0.319
same,glycan array binding signal (z-score),[14],-0.348
same,glycan array binding signal (z-score),[15],-0.338
same,glycan array binding signal (z-score),[16],-0.187
same,glycan array binding signal (z-score),[17],-0.441
same,glycan array binding signal (z-score),[18],-0.211
same,glycan array binding signal (z-score),[19],-0.125
same,glycan array binding signal (z-score),[20],-0.177
same,glycan array binding signal (z-score),[21],-0.339
same,glycan array binding signal (z-score),[22],-0.258
same,glycan array binding signal (z-score),[23],-0.229
same,glycan array binding signal (z-score),[24],0.009
same,glycan array binding signal (z-score),[25],0.618
same,glycan array binding signal (z-score),[26],-0.234
same,glycan array binding signal (z-score),[27],-0.01
same,glycan array binding signal (z-score),[28],-0.1
same,glycan array binding signal (z-score),[29],1.02
same,glycan array binding signal (z-score),[30],-0.191
same,glycan array binding signal (z-score),[31],0.574
same,glycan array binding signal (z-score),[32],0.09
same,glycan array binding signal (z-score),[33],0.374
same,glycan array binding signal (z-score),[34],0.732
same,glycan array binding signal (z-score),[35],-0.311
same,glycan array binding signal (z-score),[36],-0.127
same,glycan array binding signal (z-score),[37],-0.227
